Several values for one entry are separate records, joined by “and”; a condition that tells them apart may be missing. Identical values can stand only once. Out of some 350,000 compounds screened, about 31,000 (8.9%) were called active. This list was built around the results that the source calls inconclusive (neither active nor inactive); the mix of calls is not that of the screen. Calls come from the whole dose curve; as a rule, active = well fitted inhibition curve with a large enough effect; inconclusive = small, poorly fitted or top-dose-only effect; inactive = no such curve, though single readings can be large or run the other way. A potency beside an inconclusive call is a rough fit, not a confirmed value.
Target: Histone-lysine N-methyltransferase EHMT2 (Homo sapiens) (UniProt Q96KQ7)
Chain of UniProt Q96KQ7 (Q96KQ7 whole entry, looked up): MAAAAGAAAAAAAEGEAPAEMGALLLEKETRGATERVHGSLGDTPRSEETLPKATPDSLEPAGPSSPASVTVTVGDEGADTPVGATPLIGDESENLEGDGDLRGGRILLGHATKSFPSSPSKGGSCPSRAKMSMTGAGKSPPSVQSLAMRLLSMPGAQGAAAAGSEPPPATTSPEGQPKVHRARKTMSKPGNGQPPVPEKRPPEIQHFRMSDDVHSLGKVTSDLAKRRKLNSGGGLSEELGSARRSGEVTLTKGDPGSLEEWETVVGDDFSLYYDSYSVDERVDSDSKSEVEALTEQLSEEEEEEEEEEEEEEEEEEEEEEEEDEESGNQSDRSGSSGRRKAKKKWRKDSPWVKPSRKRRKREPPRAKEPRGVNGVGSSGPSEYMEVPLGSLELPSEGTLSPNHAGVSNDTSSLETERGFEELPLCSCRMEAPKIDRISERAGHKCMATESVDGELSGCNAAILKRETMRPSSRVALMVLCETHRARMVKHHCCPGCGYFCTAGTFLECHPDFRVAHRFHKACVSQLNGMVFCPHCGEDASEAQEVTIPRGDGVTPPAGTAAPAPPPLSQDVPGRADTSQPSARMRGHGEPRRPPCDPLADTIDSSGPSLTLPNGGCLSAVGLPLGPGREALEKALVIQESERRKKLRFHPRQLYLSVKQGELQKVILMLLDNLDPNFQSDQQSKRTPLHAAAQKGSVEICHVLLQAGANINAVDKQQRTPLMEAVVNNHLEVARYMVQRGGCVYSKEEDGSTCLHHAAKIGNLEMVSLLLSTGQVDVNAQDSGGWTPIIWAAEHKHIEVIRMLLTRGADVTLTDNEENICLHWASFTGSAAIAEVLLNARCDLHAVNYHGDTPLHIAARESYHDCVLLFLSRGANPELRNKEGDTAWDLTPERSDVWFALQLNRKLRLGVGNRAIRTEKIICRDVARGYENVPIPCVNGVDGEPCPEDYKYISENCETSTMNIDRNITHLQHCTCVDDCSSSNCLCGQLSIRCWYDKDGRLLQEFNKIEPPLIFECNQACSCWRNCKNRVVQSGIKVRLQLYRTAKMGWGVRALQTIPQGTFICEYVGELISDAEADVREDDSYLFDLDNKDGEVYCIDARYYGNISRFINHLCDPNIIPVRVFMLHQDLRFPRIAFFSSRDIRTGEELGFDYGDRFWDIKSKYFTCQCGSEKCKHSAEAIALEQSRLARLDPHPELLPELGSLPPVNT
Assay: qHTS Assay for Inhibitors of Histone Lysine Methyltransferase G9a; note: nearly all actives have a fitted effect of over 75% in size
Conditions: G9a H3K9 monomethylation, AlphaScreen, 2 h; activity, negative = inhibition: at 59 µM (top of the series) unless noted
How it was run: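 AlphaScreen read-out: biotin-H3K9 peptide (500 nM) methylation by 20 nM enzyme with 20 uM SAM, 2 h at room temperature after 15 min compound preincubation; anti-monomethyl H3K9 antibody plus donor/acceptor beads, 10 min dark.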
% is set by controls: 0 for no effect and ±100 for the full control effect; potency is the fitted concentration of half-maximal effect; tags give direction and shape of the fitted curve.

| SMILES | Potency | activity, negative = inhibition |
| --- | --- | --- |
| COc1ccc(-c2csc3nc(-c4cccnc4)nc(N4CCC(C(N)=O)CC4)c23)cc1OC | inconclusive: 7.94 µM [inhibitor, full curve, poor fit] | – |
| Cc1ccc(S(=O)(=O)N(C)CC(=O)Nc2ccccc2N2CCCC2)cc1 | – | inactive: -1.95% [at 12.7 µM] |
| O=C(OCCN=C1NS(=O)(=O)c2ccccc21)C1CC(=O)N(c2ccc(Cl)cc2)C1 (stereo unspecified) | inconclusive: 31.6 µM [inhibitor, single point] | – |
| O=C(Cc1ccc(F)cc1)NC(Cc1c[nH]c2ccccc12)C(=O)O (stereo unspecified) | inconclusive: 56.2 µM [inhibitor, partial curve, poor fit] | – |
| CC(C)CCNC(=O)CSc1nc2ccccc2nc1Cc1ccccc1 | inactive | – |
| COc1ccc(C(=O)/C=C/c2cc(C(=O)O)cc3c2OCOC3)c(O)c1 | inconclusive: 39.8 µM [inhibitor, single point] | – |
| Cc1csc(NC(=O)C2CCCN(S(=O)(=O)c3cnc[nH]3)C2)n1 (stereo unspecified) | inconclusive: 89.1 µM [inhibitor, single point] | – |
| Cc1cccnc1NC(=O)C1CCCN1S(=O)(=O)c1ccc(Cl)cc1 (stereo unspecified) | inconclusive: 39.8 µM [inhibitor, partial curve, poor fit] | – |
| CC(=O)Oc1ccc(C(=O)[C@H]2[C@H]3C(=O)N(c4ccc(C)cc4C)C(=O)[C@H]3[C@@H]3C=CC=NN32)cc1 | active: 3.55 µM | – |
| CCn1c(CCNC(=O)c2ccc(C)cc2)n[nH]c1=S | inconclusive: 28.2 µM [inhibitor, single point] | – |
| O=C(NNS(=O)(=O)c1ccc(Br)cc1)c1sccc1-n1cccc1 | inconclusive: 50.1 µM [inhibitor, partial curve, poor fit] | – |
| COc1ccc(CNC(=O)c2ccc(Br)o2)cc1 | active: 20 µM | – |
| COc1ccc(Cn2c(=O)c3cccnc3n(CC(=O)Nc3ccc(C)c(F)c3)c2=O)cc1 | inactive | – |
| O=C(c1ccc(CS(=O)(=O)c2ccccc2)o1)N1CCN(c2ccccc2)CC1 | inconclusive: 89.1 µM [inhibitor, single point] | – |
| CCOc1cc(/C=N/NC(=O)c2ccccc2-n2cccc2)ccc1O | inconclusive: 0.199 µM [inhibitor, full curve, poor fit] | – |
| CCN(C#N)c1nc(NC(C)C)nc(NC(C)C)n1 | inconclusive: 89.1 µM [inhibitor, partial curve, poor fit] | – |
| C[N+]1(CCCCSc2ccc(O)cc2)CCCCC1 | inconclusive: 28.2 µM [inhibitor, single point] | – |
| Cn1ccc2cc3c(cc21)CCN3C(=O)Nc1cccnc1 | active: 39.8 µM and active: 12.6 µM and active: 9.47 µM | – |
| O=C(CN1C(=O)NC2(CCCC2)C1=O)OCCOc1ccc(Cl)cc1 | – | inactive: 12.6% [at 0.501 µM] |
| N#Cc1nc(Cc2ccccc2)oc1N1CCC(Cc2ccccc2)CC1 | inconclusive: 3.16 µM [inhibitor, single point] | – |
| O=C(COc1ccc(Br)cc1)NNC(=S)NC(=O)c1ccccc1[N+](=O)[O-] | inconclusive: 3.16 µM [inhibitor, single point] | – |

| SMILES | Potency | activity, negative = inhibition |
| --- | --- | --- |
| CC(C)(C)OC(=O)NCCCCCNC(=O)c1[nH]cnc1C(=O)Nc1ccc(Cl)cc1 | – | inactive: 5.81% [at 0.501 µM] |
| Nc1ccc2nc(-c3cccc(-c4nc5ccc(N)cc5[nH]4)n3)[nH]c2c1 | active: 11.2 µM | – |
| COc1ccc(C2CC(c3cccs3)=NN2C(=O)CSC2=NCCS2)cc1 (stereo unspecified) | inconclusive: 4.47 µM [inhibitor, partial curve, poor fit] | – |
| CCN(CC)c1ccc(-n2c(C)cc(C=O)c2C)cc1 | active: 44.7 µM | – |
| O=C(NN=C1CCCCC1)c1cc(-c2ccccc2)n[nH]1 | inactive | – |
| Cc1cccc(Nc2nnc(-c3ccc(C(=O)N4C[C@H]5C[C@H](C4)c4cccc(=O)n4C5)cc3)c3ccccc23)c1 | inconclusive: 2.24 µM [inhibitor, partial curve, poor fit] | – |
| CN(C)CCCn1c2c(c(SCC(=O)Nc3cccc4ccccc34)nc1=O)CCCC2 | active: 39.8 µM | – |
| CC1CC(C)CN(C(=O)COC(=O)CNS(=O)(=O)/C=C/c2ccccc2)C1 (stereo unspecified) | inconclusive: 0.1 µM [inhibitor, full curve, poor fit] | – |
| CCCCc1nc2sc3c(c2c(=O)n1NC(=O)c1ccco1)CC(C)(C)OC3 | inconclusive: 70.8 µM [inhibitor, single point] | – |
| COc1ccc(-n2ccc(=O)c(C(=O)Nc3ccc(S(=O)(=O)Nc4nccs4)cc3)n2)cc1 | inconclusive: 100 µM [inhibitor, single point] | – |
| O=C1CCC(C(=O)NCc2cccnc2)N1 (stereo unspecified) | inconclusive: 39.8 µM [inhibitor, single point] | – |
| Cc1ccc(C)n1N1C(=O)/C(=C\c2ccc(Cl)cc2)SC1=S | inconclusive: 3.55 µM [inhibitor, single point] | – |
| O=C(CN1C(=O)NC2(CCCC2)C1=O)Nc1nc2ccc(F)cc2s1 | inconclusive: 89.1 µM [inhibitor, partial curve, poor fit] | – |
| Cc1ccc(Nc2nc(C)cs2)cc1 | active: 35.5 µM | – |
| CC1(C)Cc2cccc(OCC(=O)Nc3cc(S(C)(=O)=O)ccc3Cl)c2O1 | inconclusive: 8.91 µM [inhibitor, single point] | – |
| Cc1cccc(-n2ccnc2SCC(=O)Nc2ccc(F)cc2F)c1C | inconclusive: 39.8 µM [inhibitor, partial curve, poor fit] | – |
| CCOC(=O)c1sc(NC(=O)CSc2nc(-c3ccco3)cc(C(F)(F)F)n2)c(C#N)c1C | – | inconclusive: -75.4% [inhibitor] |
| COc1ccc(C2C=C(c3ccccc3)Nc3nc(CCCO)nn32)cc1 (stereo unspecified) | – | inconclusive: -63.1% [inhibitor] |
| O=C(CSc1nnc(CCCN2C(=O)c3cccc4cccc(c34)C2=O)n1-c1ccccc1)N1CCCCC1 | inconclusive: 20 µM [inhibitor, single point] | – |
| COc1ccc(CCNC(=O)CSc2nnc(CNC(=O)c3cc(OC)c(OC)c(OC)c3)o2)cc1OC | – | inactive: 7.45% [at 0.501 µM] |

From PubChem BioAssay AID504332 (National Center for Advancing Translational Sciences (NCATS), 2011)
